The other results are listed elsewhere or left out.

This is an account of results in publication PMC12820563, “FoxP3 forms a head-to-head dimer in vivo and stabilizes its multimerization on adjacent microsatellites”.

For this experiment, the target named is T1, MBP-FoxP1dN (Mus musculus, UniProt P58462 326-579).
T1 sequence: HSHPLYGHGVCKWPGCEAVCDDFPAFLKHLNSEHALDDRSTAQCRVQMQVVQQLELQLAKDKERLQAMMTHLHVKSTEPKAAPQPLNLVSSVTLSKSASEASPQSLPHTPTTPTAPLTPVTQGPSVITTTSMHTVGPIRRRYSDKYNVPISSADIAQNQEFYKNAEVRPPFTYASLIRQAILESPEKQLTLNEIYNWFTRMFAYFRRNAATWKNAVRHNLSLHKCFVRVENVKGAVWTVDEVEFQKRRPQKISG
The experiment in a line: PD-seq (MBP pull-down with sequencing); 20 mM Tris-HCl pH 7.5, 100 mM NaCl, 1.5 mM MgCl2, 0.4 uM protein, 0.1 uM dsDNA library, 30 min, room temperature, amylose pull-down; high values mean tight binding. To be noted: protein: recombinant; tags: His6-MBP; chain copies: 2; dsDNA, one strand shown. In outline:
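The N-terminus-lacking fragment of mouse FoxP3 or FoxP1 carried a His6-MBP tag and was expressed in E. coli. At 0.4 µM it was incubated with 0.1 µM Klenow-filled degenerate double-stranded DNA library for 30 min at room temperature in Tris pH 7.5 buffer with NaCl and MgCl2, and complexes were caught on amylose resin, washed three times, released with proteinase K, PCR-barcoded and Illumina-sequenced. Binding is reads-per-million enrichment of pull-down over input with replicates pooled.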
Regarding “GATGATTGTTCTCCCAGCTGATGAATTATGGCCTTCGAGTAAACAAATTTTCCTAATCTTTCTGTTCAAGCGCCATCTAC”, the binding signal was 1.03 RPM ratio (pull-down/input).
With “GATGATTGTTCTCCCAGCTGATGAATTGTGCAGCTCGAGTAAACAAATTTTCCTAATCTTTCTGTTCAAGCGCCATCTAC” the figure was 0.932 RPM ratio (pull-down/input).
Turning to “GATGATTGTTCTCCCAGCTGATGAATTTGGCTAATCGAGTAAACAAATTTTCCTAATCTTTCTGTTCAAGCGCCATCTAC”, the binding signal was 0.962 RPM ratio (pull-down/input).
The same measure for “GATGATTGTTCTCCCAGCTGATGAATTGTATCTATCGAGTAAACAAATTTTCCTAATCTTTCTGTTCAAGCGCCATCTAC”: 1.41 RPM ratio (pull-down/input).
Regarding “GATGATTGTTCTCCCAGCTGATGAATTCGCTGATTCGAGTAAACAAATTTTCCTAATCTTTCTGTTCAAGCGCCATCTAC”, the binding signal was 0.903 RPM ratio (pull-down/input).
With “GATGATTGTTCTCCCAGCTGATGAATTAAGCACATCGAGTAAACAAATTTTCCTAATCTTTCTGTTCAAGCGCCATCTAC” the figure was 1.15 RPM ratio (pull-down/input).
The same measure for “GATGATTGTTCTCCCAGCTGATGAATTATCCCTGTCGAGTAAACAAATTTTCCTAATCTTTCTGTTCAAGCGCCATCTAC”: 0.907 RPM ratio (pull-down/input).
With “GATGATTGTTCTCCCAGCTGATGAATTTGCCGAATCGAGTAAACAAATTTTCCTAATCTTTCTGTTCAAGCGCCATCTAC” the figure was 0.887 RPM ratio (pull-down/input); with “GATGATTGTTCTCCCAGCTGATGAATTAGGGCACTCGAGTAAACAAATTTTCCTAATCTTTCTGTTCAAGCGCCATCTAC”, 0.9 RPM ratio (pull-down/input); with “GATGATTGTTCTCCCAGCTGATGAATTTCAATACTCGAGTAAACAAATTTTCCTAATCTTTCTGTTCAAGCGCCATCTAC”, 0.865 RPM ratio (pull-down/input).
With “GATGATTGTTCTCCCAGCTGATGAATTGTCTCAATCGAGTAAACAAATTTTCCTAATCTTTCTGTTCAAGCGCCATCTAC”, the binding signal was 1.15 RPM ratio (pull-down/input).
The same measure for “GATGATTGTTCTCCCAGCTGATGAATTTGCGATGTCGAGTAAACAAATTTTCCTAATCTTTCTGTTCAAGCGCCATCTAC”: 1.01 RPM ratio (pull-down/input); for “GATGATTGTTCTCCCAGCTGATGAATTGTCCATCTCGAGTAAACAAATTTTCCTAATCTTTCTGTTCAAGCGCCATCTAC”: 0.951 RPM ratio (pull-down/input).
With “GATGATTGTTCTCCCAGCTGATGAATTTTATAGCTCGAGTAAACAAATTTTCCTAATCTTTCTGTTCAAGCGCCATCTAC” the figure was 0.946 RPM ratio (pull-down/input); with “GATGATTGTTCTCCCAGCTGATGAATTAAGTTCGTCGAGTAAACAAATTTTCCTAATCTTTCTGTTCAAGCGCCATCTAC”, 0.901 RPM ratio (pull-down/input); with “GATGATTGTTCTCCCAGCTGATGAATTATCGTCCTCGAGTAAACAAATTTTCCTAATCTTTCTGTTCAAGCGCCATCTAC”, 0.977 RPM ratio (pull-down/input).
The same measure for “GATGATTGTTCTCCCAGCTGATGAATTCGCTCTCTCGAGTAAACAAATTTTCCTAATCTTTCTGTTCAAGCGCCATCTAC”: 0.814 RPM ratio (pull-down/input).
Take “GATGATTGTTCTCCCAGCTGATGAATTGCCAATGTCGAGTAAACAAATTTTCCTAATCTTTCTGTTCAAGCGCCATCTAC”: the binding signal was 0.943 RPM ratio (pull-down/input).
The same measure for “GATGATTGTTCTCCCAGCTGATGAATTGTATGGGTCGAGTAAACAAATTTTCCTAATCTTTCTGTTCAAGCGCCATCTAC”: 0.969 RPM ratio (pull-down/input); for “GATGATTGTTCTCCCAGCTGATGAATTCTGCGGATCGAGTAAACAAATTTTCCTAATCTTTCTGTTCAAGCGCCATCTAC”: 0.85 RPM ratio (pull-down/input).
For “GATGATTGTTCTCCCAGCTGATGAATTAGCTAAGTCGAGTAAACAAATTTTCCTAATCTTTCTGTTCAAGCGCCATCTAC”, the binding signal was 0.909 RPM ratio (pull-down/input).
With “GATGATTGTTCTCCCAGCTGATGAATTAGATGGTTCGAGTAAACAAATTTTCCTAATCTTTCTGTTCAAGCGCCATCTAC” the figure was 0.928 RPM ratio (pull-down/input); with “GATGATTGTTCTCCCAGCTGATGAATTGCTCTTTTCGAGTAAACAAATTTTCCTAATCTTTCTGTTCAAGCGCCATCTAC”, 1.2 RPM ratio (pull-down/input).
The same measure for “GATGATTGTTCTCCCAGCTGATGAATTCCTAAGGTCGAGTAAACAAATTTTCCTAATCTTTCTGTTCAAGCGCCATCTAC”: 0.703 RPM ratio (pull-down/input); for “GATGATTGTTCTCCCAGCTGATGAATTACTGATGTCGAGTAAACAAATTTTCCTAATCTTTCTGTTCAAGCGCCATCTAC”: 1.37 RPM ratio (pull-down/input).
As to “GATGATTGTTCTCCCAGCTGATGAATTAAGATGATCGAGTAAACAAATTTTCCTAATCTTTCTGTTCAAGCGCCATCTAC”, the binding signal is 0.992 RPM ratio (pull-down/input).
With “GATGATTGTTCTCCCAGCTGATGAATTCTGATCGTCGAGTAAACAAATTTTCCTAATCTTTCTGTTCAAGCGCCATCTAC” the figure was 0.813 RPM ratio (pull-down/input).
With “GATGATTGTTCTCCCAGCTGATGAATTAAGAGCATCGAGTAAACAAATTTTCCTAATCTTTCTGTTCAAGCGCCATCTAC” the figure was 1.07 RPM ratio (pull-down/input); with “GATGATTGTTCTCCCAGCTGATGAATTTAGTGGGTCGAGTAAACAAATTTTCCTAATCTTTCTGTTCAAGCGCCATCTAC”, 0.851 RPM ratio (pull-down/input).
As to “GATGATTGTTCTCCCAGCTGATGAATTGTTTCAATCGAGTAAACAAATTTTCCTAATCTTTCTGTTCAAGCGCCATCTAC”, the binding signal is 1.25 RPM ratio (pull-down/input).
For “GATGATTGTTCTCCCAGCTGATGAATTCAGACATTCGAGTAAACAAATTTTCCTAATCTTTCTGTTCAAGCGCCATCTAC”, the binding signal is 0.89 RPM ratio (pull-down/input).
With “GATGATTGTTCTCCCAGCTGATGAATTCCCGGAGTCGAGTAAACAAATTTTCCTAATCTTTCTGTTCAAGCGCCATCTAC” the figure was 0.755 RPM ratio (pull-down/input); with “GATGATTGTTCTCCCAGCTGATGAATTTCATCTTTCGAGTAAACAAATTTTCCTAATCTTTCTGTTCAAGCGCCATCTAC”, 0.887 RPM ratio (pull-down/input).
The same measure for “GATGATTGTTCTCCCAGCTGATGAATTAATTGCCTCGAGTAAACAAATTTTCCTAATCTTTCTGTTCAAGCGCCATCTAC”: 1 RPM ratio (pull-down/input); for “GATGATTGTTCTCCCAGCTGATGAATTACTAGCATCGAGTAAACAAATTTTCCTAATCTTTCTGTTCAAGCGCCATCTAC”: 1.23 RPM ratio (pull-down/input); for “GATGATTGTTCTCCCAGCTGATGAATTTGTGCGGTCGAGTAAACAAATTTTCCTAATCTTTCTGTTCAAGCGCCATCTAC”: 0.941 RPM ratio (pull-down/input).
With “GATGATTGTTCTCCCAGCTGATGAATTAGCTGCCTCGAGTAAACAAATTTTCCTAATCTTTCTGTTCAAGCGCCATCTAC” the figure was 0.874 RPM ratio (pull-down/input).
As for “GATGATTGTTCTCCCAGCTGATGAATTTCGAGATTCGAGTAAACAAATTTTCCTAATCTTTCTGTTCAAGCGCCATCTAC”, the binding signal is 0.796 RPM ratio (pull-down/input).
The same measure for “GATGATTGTTCTCCCAGCTGATGAATTAGCTGGATCGAGTAAACAAATTTTCCTAATCTTTCTGTTCAAGCGCCATCTAC”: 0.767 RPM ratio (pull-down/input); for “GATGATTGTTCTCCCAGCTGATGAATTCGACCACTCGAGTAAACAAATTTTCCTAATCTTTCTGTTCAAGCGCCATCTAC”: 0.809 RPM ratio (pull-down/input).
